42 molecules from article PMC4336329 (PLoS ONE, 2015) can be followed below.

Among all 310,000 compounds or so, about 14,000 (4.5%) showed an effect of 50% or more. The effect is printed as a negative number. This is one part of the list.
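Note: peak tail current of the secondary pulse compared with the same well before compound.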

For the assay, the target named is human ether-à-go-go-related gene (hERG) potassium channel (human, UniProt Q12809). The assay is described as follows: primary screen, population patch clamp on CHO cells stably expressing hERG.
human ether-à-go-go-related gene (hERG) potassium channel, sequence (Q12809 whole entry, looked up): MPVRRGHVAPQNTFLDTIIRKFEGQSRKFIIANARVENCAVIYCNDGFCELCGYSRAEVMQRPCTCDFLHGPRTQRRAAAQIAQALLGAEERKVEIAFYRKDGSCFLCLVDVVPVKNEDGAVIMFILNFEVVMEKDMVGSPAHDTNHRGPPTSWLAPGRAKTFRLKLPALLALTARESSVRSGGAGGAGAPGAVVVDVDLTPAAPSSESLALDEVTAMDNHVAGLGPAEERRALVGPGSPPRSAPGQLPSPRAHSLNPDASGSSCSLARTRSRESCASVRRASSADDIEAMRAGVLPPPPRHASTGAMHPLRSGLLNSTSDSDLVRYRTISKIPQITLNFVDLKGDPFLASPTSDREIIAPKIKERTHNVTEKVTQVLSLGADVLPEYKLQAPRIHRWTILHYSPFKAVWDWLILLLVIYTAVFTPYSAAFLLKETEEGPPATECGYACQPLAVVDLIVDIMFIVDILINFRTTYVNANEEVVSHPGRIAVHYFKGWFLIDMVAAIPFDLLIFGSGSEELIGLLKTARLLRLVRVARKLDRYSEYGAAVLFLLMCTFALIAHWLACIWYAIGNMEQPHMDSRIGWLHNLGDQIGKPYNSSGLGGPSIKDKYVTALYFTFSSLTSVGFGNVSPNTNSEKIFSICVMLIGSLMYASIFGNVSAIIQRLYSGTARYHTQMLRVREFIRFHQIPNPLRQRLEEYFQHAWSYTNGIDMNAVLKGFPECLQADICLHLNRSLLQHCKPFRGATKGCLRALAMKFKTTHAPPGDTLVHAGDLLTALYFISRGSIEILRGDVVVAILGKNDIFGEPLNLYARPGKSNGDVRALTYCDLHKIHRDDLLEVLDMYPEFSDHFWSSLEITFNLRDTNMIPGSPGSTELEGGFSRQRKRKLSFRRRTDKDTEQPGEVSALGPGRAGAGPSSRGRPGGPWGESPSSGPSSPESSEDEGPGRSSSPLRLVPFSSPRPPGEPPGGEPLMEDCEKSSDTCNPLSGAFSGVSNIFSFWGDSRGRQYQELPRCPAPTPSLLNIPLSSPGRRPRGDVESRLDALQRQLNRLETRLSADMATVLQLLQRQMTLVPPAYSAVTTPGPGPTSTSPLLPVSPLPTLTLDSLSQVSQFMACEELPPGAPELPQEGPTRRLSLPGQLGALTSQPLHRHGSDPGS
With `O=C(Nc1ccc(Cl)cc1)N1CCc2[nH]c3ccccc3c2C1`, the “hERG current change (%, negative = inhibition) at 10uM” value is recorded as -17.9%. With `CN1CCc2nc(SCC(=O)Nc3cccc(F)c3)c(C#N)c(-c3cccs3)c2C1`, the “hERG current change (%, negative = inhibition) at 10uM” value was -62.3%.

For the molecule `CCC(=O)N(CC)c1nc(-c2ccc(OC)cc2)cs1`, the “hERG current change (%, negative = inhibition) at 10uM” value is given as -5.81%. Under `CCc1ccccc1N(CC(=O)NCc1ccco1)C(=O)CCC(=O)Nc1ccccn1` stands -7.41%; under `COc1ccc(C(=O)N(C)c2c(C)n(C)n(-c3ccccc3)c2=O)cc1OC`, 22.6%; under `COn1c(=O)c(-c2ccc(Cl)cc2)[n+]([O-])c2ccccc21`, 3.06%. Under `O=C(Nc1ccccc1N1CCCCC1)c1cnccn1` stands -14.4%. The figure for `Cn1c(=O)c2c(ncn2CC(=O)N2CCN(S(=O)(=O)c3ccc(F)cc3)CC2)n(C)c1=O` is -12.6%; for `CC(C(=O)O)N(c1ccccc1Cl)S(C)(=O)=O` (stereo not drawn) it is -9.79%. Regarding `CCOC(=O)Cc1csc(NC(=O)CSC2=NCCS2)n1`, the “hERG current change (%, negative = inhibition) at 10uM” value is 8.47%. The figure for `Cc1nc(C(C)NC(=O)CCc2nnc(CCCc3ccccc3)o2)c(C)s1` (stereo not drawn) is -3.53%.

Consider `COc1ccc(Oc2c(O)c3ccccc3n(C)c2=O)cc1`, for which the “hERG current change (%, negative = inhibition) at 10uM” value is 7.23%. Under `Cc1cc(NC(=O)C2CC(=O)N(c3ccccc3C)C2)no1` (stereo not drawn) stands 16.1%; under `CC(=O)c1cc(C#N)c(SCCC(C)C)nc1C`, 4.67%. The figure for `COc1cccc(N2CC(C(=O)Nc3nnc(SCC(=O)NCc4ccco4)s3)CC2=O)c1` (stereo not drawn) is 13.8%; for `CCOC(=O)c1ccc(N2C(=O)CC(Sc3nc(O)c(CC)c(=O)[nH]3)C2=O)cc1` (stereo not drawn) it is 25.8%; for `CCOC(=O)C1CCCN(C(=O)c2ccc3c(c2)N(Cc2ccccc2)C(=O)c2ccccc2S3=O)C1` (stereo not drawn) it is -13.2%.

For `CC12CNCC(C)(CNC1)C2O` (stereo not drawn), the “hERG current change (%, negative = inhibition) at 10uM” value was determined as 10.7%.

In the case of `COC(=O)CNC(=O)COC(=O)c1cc(F)c(F)cc1Cl`, the “hERG current change (%, negative = inhibition) at 10uM” value came out at 5.29%.

Consider `OC(CSc1c(Cl)cccc1Cl)CN1CCN(c2ccccc2F)CC1` (stereo not drawn), for which the “hERG current change (%, negative = inhibition) at 10uM” value was -39.8%.

Regarding `COc1ccccc1COCC(O)CN1CCN(S(=O)(=O)c2cccc(F)c2)CC1` (stereo not drawn), the “hERG current change (%, negative = inhibition) at 10uM” value is recorded as -16.9%. The figure for `O=C(COc1ccccc1)Nc1nc2cc3c(cc2s1)OCCO3` is 7.49%; for `Cc1nc2cc(NC(=O)Nc3cccc(F)c3)ccc2n1C` it is 0.0965%; for `Nc1ccc(NC(=O)NC2CCCCC2)cc1` it is 12.5%. The figure for `COc1cc(OC)c(NC(=O)CC(=O)Nc2cc(Cl)c(OC)cc2OC)cc1Cl` is 17.2%; for `CCOc1cc(/C=N/N2C(=O)NC3(CCCCC3)C2=O)cc(Br)c1O` it is 21.1%. Under `Cc1ccc(S(=O)(=O)NC2CC(C)(C)N(O)C(C)(C)C2)cc1.Cl` stands 8.85%. Consider `Cc1ccc(NC(=O)c2snc3ccc(Cl)cc23)cc1C`, for which the “hERG current change (%, negative = inhibition) at 10uM” value amounted to 6.27%. As for `NS(=O)(=O)c1ccc(CCNC(=O)C(=O)c2cn(CC(=O)N3CCOCC3)c3ccccc23)cc1`, the “hERG current change (%, negative = inhibition) at 10uM” value is on record as 21.1%.

Turning to `CCC1C(=O)Nc2ccccc2N1C(=O)c1ccc(Cl)nc1` (stereo not drawn), the “hERG current change (%, negative = inhibition) at 10uM” value is -7.27%.

As to `NC(=O)C[C@@H]1N[C@]2(C(=O)Nc3ccccc32)[C@@H]2C(=O)N(c3cc(C(F)(F)F)ccc3Cl)C(=O)[C@H]12`, the “hERG current change (%, negative = inhibition) at 10uM” value is 4.19%. The figure for `CC(=O)c1c(C)nn(CC(=O)NC2CCCN(Cc3ccc(CC(C)C)cc3)C2)c1C` (stereo not drawn) is -73.4%. The figure for `O=C(COc1ccccc1F)Nc1ccc(S(=O)(=O)Nc2nccs2)cc1` is 8.95%; for `CCOC(=O)N1CCN(C(=O)c2ccc(OC(C)=O)cc2)CC1` it is 16%. Take `Cc1ccc2cc(CN(CCCN3CCOCC3)C(c3nnnn3Cc3ccco3)C(C)C)c(=O)[nH]c2c1C` (stereo not drawn): the “hERG current change (%, negative = inhibition) at 10uM” value is -39.4%.

On to `COc1cc([C@H]2Oc3cc([C@H]4Oc5cc(O)cc(O)c5C(=O)[C@@H]4O)ccc3O[C@@H]2CO)ccc1O`, for which the “hERG current change (%, negative = inhibition) at 10uM” value was found to be 4.35%. As for `CCc1nonc1NC(=O)c1oc2ccc(Cl)cc2c1C`, the “hERG current change (%, negative = inhibition) at 10uM” value was 13.2%. The figure for `CCn1c2ccccc2c2cc(NC(=O)COC(=O)c3cc(S(N)(=O)=O)c(Cl)cc3Cl)ccc21` is 7.77%; for `COc1ccc2c(c1)CCN(C(=O)CCl)C2C1C(=O)CCCC1=O` (stereo not drawn) it is 5.82%; for `CSCCC(=O)N1CCN(CC(=O)N2CCCC2)CC1` it is -9.49%. The figure for `CC(=O)Nc1ccc(N=C(C2=C(O)c3ccccc3C2=O)c2ccccc2)cc1` is -6.31%. Under `O=C(/C=C\c1ccccc1)Nc1ccc(NC(=O)c2ccco2)cc1` stands 7.91%.
